Laboratory results reported in PubChem BioAssay AID2546 (National Center for Advancing Translational Sciences (NCATS), 2010).
Screen size: about 310,000 compounds; about 11,000 (3.5%) were called active. The shares of active, inactive and inconclusive entries below differ from those in the screen. Calls come from the whole dose curve; as a rule, active = well fitted inhibition curve with a large enough effect; inconclusive = small, poorly fitted or top-dose-only effect, or effect the other way; inactive = flat fitted curve, though single readings scatter. No potency is given beside an inconclusive call; the fits are too rough.

Test: VP16 counterscreen qHTS for inhibitors of ROR gamma transcriptional activity;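 note: Gal4-VP16 expression switched on by copper sulfate through the metallothionein promoter; nearly all actives have a fitted effect of over 50% in size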
Details: Drosophila S2 Gal4-VP16 UAS-luciferase, luminescence, 20 h; activity, negative = inhibition: at 53.6 µM (top of the series)
% is set by controls: 0 for no effect and ±100 for the full control effect; potency is the fitted concentration of half-maximal effect; tags give direction and shape of the fitted curve.

For `O=C(O)CC(Sc1n[nH]c(=S)s1)C(=O)O` (stereo unspecified), which “activity, negative = inhibition” value is on record?
Its value is inactive: -9.14%.

With `CCN(CC(=O)Nc1ccc(C)c(F)c1)CC(=O)NC(C)(C)C` as the compound, how does the Potency read?
Its Potency is inconclusive [activator, single point].

Which Potency does the source give for `CC1(C)CCC(=O)N2CC[C@H]3C[C@H](OC(=O)Nc4ccc(Br)cc4)C[C@@H]1[C@H]32` here?
Its Potency is inconclusive [inhibitor, single point].

With `CCOc1ccccc1CSc1nc2ccccc2[nH]1` as the compound, how does the Potency read?
The Potency was inconclusive [inhibitor, single point].

Which Potency does the source give for `COc1ccc([N+](=O)[O-])cc1NC(=O)CSCc1ccc(Br)cc1` here?
Its Potency is inconclusive [activator, single point].

For `COc1ccc(-c2nnc(SCC(=O)Nc3ccc4c(c3)OCCO4)n2N)cc1OC`, which “activity, negative = inhibition” value is on record?
The value was inactive: -1.4%.

Which “activity, negative = inhibition” value does the source give for `O=C(Nc1ccc(NC(=S)NC(=O)c2ccccc2F)cc1)c1cccs1` here?
Its value is inactive: -24.9%.

Which “activity, negative = inhibition” value does the source give for `O=C(Nc1cccc([N+](=O)[O-])c1)ONC1=NCCCCC1` here?
The value was inactive: -1.02%.

Which Potency does the source give for `Clc1ccc(OCc2cn3ccccc3n2)c2ncccc12` here?
The Potency was inconclusive [inhibitor, single point].

For `Cc1sc2nc(CSc3nnnn3-c3ccc(Cl)cc3)[nH]c(=O)c2c1C`, which Potency is on record?
The Potency was inconclusive [inhibitor, single point].

For `C1=Nc2c(Nc3ccccc3)ncnc2Oc2ccccc21`, which “activity, negative = inhibition” value is on record?
The value was inactive: 8.95%.

Which Potency does the source give for `CCOc1ccc2nc(NC(=O)c3ccoc3C)sc2c1` here?
Its Potency is active: 11.2 µM.

For `O=C(CN1CCN(Cc2ccccc2F)CC1)Nc1ccccc1Cl`, which “activity, negative = inhibition” value is on record?
The value was inactive: 1.08%.

Which Potency does the source give for `CC(NC(=O)/C(C#N)=C/c1ccco1)c1ccccc1` (stereo unspecified) here?
Its Potency is inconclusive [inhibitor, single point].

For `CCn1c(O)c(N=NC(=O)c2ccc(CSc3nncn3C)cc2)c2ccccc21`, which “activity, negative = inhibition” value is on record?
Its value is inactive: -14.2%.

Which “activity, negative = inhibition” value does the source give for `CC(C)(C)NS(=O)(=O)c1ccc2nc(NC(=O)Cc3cccs3)sc2c1` here?
Its value is inactive: -0.565%.

Which Potency does the source give for `CN1CCN(c2ccc(-c3ccc4ccccc4n3)cc2)CC1` here?
Its Potency is inconclusive [inhibitor, full curve].

For `COc1ccc(Cl)cc1NC(=O)Cn1nnc(C(=O)NCc2ccc3c(c2)OCO3)c1N`, which Potency is on record?
Its Potency is inconclusive [inhibitor, single point].

For `CCCN(Cc1ccccc1)C(=S)Nc1ccc(OC(F)F)cc1`, which Potency is on record?
Its Potency is inconclusive [inhibitor, single point].

With `COc1ccc(S(=O)(=O)NNC(=S)NCCc2ccccc2)c(OC)c1` as the compound, how does the Potency read?
Its Potency is inconclusive [inhibitor, single point].

Which Potency does the source give for `CCc1ccc(O)c(N=Cc2cccc(C)c2O)c1` here?
Its Potency is inconclusive [inhibitor, single point].

With `Cc1cc(F)ccc1NC(=O)c1ccc(NS(=O)(=O)c2cc(C(C)(C)C)ccc2C)cc1` as the compound, how does the “activity, negative = inhibition” value read?
The value was inactive: 4.06%.

For `CCOC(=O)Nc1ccc(C(N)=O)cc1`, which Potency is on record?
Its Potency is inconclusive [inhibitor, partial curve].

With `C[C@](N)(Cc1ccc(O)c(O)c1)C(=O)O` as the compound, how does the Potency read?
The Potency was inconclusive [inhibitor, single point].

For `Cc1ccc(NC(=O)C(=O)NCc2ccc(/C=C(/C#N)C(=O)NCc3cccnc3)o2)cc1C`, which Potency is on record?
Its Potency is inconclusive [inhibitor, single point].

With `COc1cc(NC(=O)C/C(C)=N/NC(=O)Cc2ccccc2)c(OC)cc1Cl` as the compound, how does the Potency read?
Its Potency is inconclusive [inhibitor, single point].

Which Potency does the source give for `CC1=CC(=O)C=C(C)C1=NOc1ccccc1[N+](=O)[O-]` here?
Its Potency is inconclusive [inhibitor, partial curve].

Which “activity, negative = inhibition” value does the source give for `CC(=O)c1ccc(NCCC(=O)c2ccccc2)cc1` here?
The value was inactive: -24.8%.

For `O=S(=O)(/N=S1/CC=CCN1S(=O)(=O)c1ccccc1)c1ccccc1` (stereo unspecified), which Potency is on record?
Its Potency is inconclusive [inhibitor, single point].

For `CNC(=O)c1[nH]cnc1C(=O)Nc1ccc(Cl)cc1`, which Potency is on record?
Its Potency is active: 7.08 µM.

Which Potency does the source give for `Cc1c(CC(Cl)(Cl)Cl)c2c(n1O)CC(C)(C)CC2=O` here?
Its Potency is inconclusive [inhibitor, single point].

Which Potency does the source give for `CC(=O)/C=C/c1ccc2ccccc2n1` here?
The Potency was inconclusive [inhibitor, single point].

Which Potency does the source give for `CCc1ccccc1NC(=O)CCC(=O)OCC(=O)c1ccc(-c2ccccc2)cc1` here?
The Potency was inconclusive [inhibitor, partial curve].

With `COc1ccc2c(c1)c(/C=N/Nc1nc3ccccc3[nH]1)c(C)n2C` as the compound, how does the Potency read?
The Potency was active: 15.8 µM.

For `CCn1c([N+](=O)[O-])nc2c1c(=O)[nH]c(=O)n2C`, which Potency is on record?
Its Potency is active: 17.8 µM.

Which Potency does the source give for `Cc1c(C(c2ccc([N+](=O)[O-])cc2)c2c(C)n(C)n(-c3ccccc3)c2=O)c(=O)n(-c2ccccc2)n1C` here?
The Potency was inconclusive [inhibitor, single point].

Which Potency does the source give for `COc1ccc(CCNc2ncnc3c2[nH]c2cc(OC)c(OC)cc23)cc1OC` here?
Its Potency is inconclusive [inhibitor, single point].

With `CC1(C(=O)Nc2nnc(C(C)(C)C)s2)Cc2ccccc2C(=O)O1` (stereo unspecified) as the compound, how does the Potency read?
Its Potency is inconclusive [inhibitor, single point].

With `Cc1ccc(S(=O)(=O)Nc2cc(C(=O)NCCN(C)C)ccc2N2CCCCC2)cc1` as the compound, how does the Potency read?
Its Potency is inconclusive [inhibitor, single point].

With `COc1ccc2c(c1)CC/C2=N\NC(=O)c1ccccc1` as the compound, how does the Potency read?
Its Potency is inconclusive [inhibitor, single point].

With `CC(=O)OCC1OC(Oc2cc(OC(C)=O)c3c(=O)cc(-c4ccc(OC(C)=O)c(OC(C)=O)c4)oc3c2)C(OC(C)=O)C(OC(C)=O)C1OC(C)=O` (stereo unspecified) as the compound, how does the Potency read?
The Potency was active: 15.8 µM.

With `COc1cc(/C=N/NC(=S)NCC2CCCO2)cc(OC)c1OC` (stereo unspecified) as the compound, how does the Potency read?
The Potency was active: 15.8 µM.

With `Nc1nnnn1/N=C/C(Br)=C/c1ccccc1` as the compound, how does the Potency read?
The Potency was inconclusive [inhibitor, single point].

With `O=C(c1ccc(Cl)cc1)N1CCCCC(Sc2nnc(-c3ccc4c(c3)OCO4)o2)C1=O` (stereo unspecified) as the compound, how does the Potency read?
Its Potency is inconclusive [inhibitor, partial curve].

With `CCN(CC)S(=O)(=O)c1ccc(Oc2ccc(S(=O)(=O)N(CC)CC)cc2)cc1` as the compound, how does the Potency read?
Its Potency is active: 7.08 µM.

For `O=C1/C(=C/c2ccccc2O)SC(=S)N1Cc1cccnc1`, which Potency is on record?
Its Potency is inconclusive [inhibitor, single point].
